Experimental data published in the supplement of paper PMC12217912.
The list shows a part of the results. The full chains were built here from the parent and the listed change. Inactive controls read about 0.05.

B1: TEV protease; numbered along this chain (parent)
chain: MGESLFKGPRDYNPISSSICHLTNESDGHTTSLYGIGFGPFIITNKHLFRRNNGTLVVQSLHGVFKVKDTTTLQQHLVDGRDMIIIRMPKDFPPFPQKLKFREPQREERICLVTTNFQTKSMSSMVSDTSCTFPSGDGIFWKHWIQTKDGQCGSPLVSTRDGFIVGIHSASNFTNTNNYFTSVPKNFMELLTNQEAQQWVSGWRLNADSVLWGGHKVFMVKPEEPFQPVKEATQL

Variants of: B1
Experiment: raw area under fraction-flipped curve 0-4 h after induction (AUC4h, not background-subtracted), DNA-recorder readout of cleavage of the substrate (dimensionless); higher = more cleavage of the substrate by the protease variant
Conditions: temperature: 34 °C; time window: 0-4 h after rhamnose induction
Method: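 In vivo DNA recorder in E. coli TOP10(DE3) ΔrhaA at 34 °C. Each TEVp single-site mutant (parent TEVp 0) is paired with a single-site variant of the 7-mer TEVs (canonical ENLYFQ|S). The substrate sits between flexible linkers in a Bxb1-sfGFP-TEVs-SsrA fusion, so cleavage stabilises Bxb1 and speeds flipping of a recombination array, read by NGS. The value is the raw area under the fraction-flipped curve over 0-4 h after rhamnose induction (AUC4h), with ≥20 reads per time point. It is not background-subtracted; inactive controls average about 0.047.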
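Further: Bxb1 expression induced with 0.2% (w/v) L-rhamnose at OD600 near 0.5, cultures sampled hourly, flipped fraction per protease–substrate barcode pair counted by paired-end Illumina sequencing.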

With I164Q the “area with substrate ENLAFQS” value was 0.0675, the “area with substrate ENLCFQS” value was 0.05 and the “area with substrate ENLDFQS” value was 0.0523. The “area with substrate ENLEFQS” value was 0.0504, the “area with substrate ENLFFQS” value was 0.06 and the “area with substrate ENLGFQS” value was 0.0616. The “area with substrate ENLHFQS” value was 0.0791, the “area with substrate ENLIFQS” value was 0.0642 and the “area with substrate ENLKFQS” value was 0.0447. The “area with substrate ENLLFQS” value was 0.0565, the “area with substrate ENLMFQS” value was 0.0507 and the “area with substrate ENLNFQS” value was 0.0464. The “area with substrate ENLPFQS” value was 0.0575, the “area with substrate ENLQFQS” value was 0.037 and the “area with substrate ENLRFQS” value was 0.0625. The “area with substrate ENLSFQS” value was 0.044 and the “area with substrate ENLWFQS” value was 0.0504.

In the case of G39L, the “area with substrate ENLAFQS” value is reported as 0.0286, the “area with substrate ENLCFQS” value is reported as 0.0394 and the “area with substrate ENLDFQS” value is reported as 0.039. For the same variant, the “area with substrate ENLEFQS” value was 0.0386, the “area with substrate ENLFFQS” value was 0.0483 and the “area with substrate ENLHFQS” value was 0.0431. For the same variant, the “area with substrate ENLKFQS” value was 0.0452, the “area with substrate ENLLFQS” value was 0.0421 and the “area with substrate ENLNFQS” value was 0.0331. The “area with substrate ENLQFQS” value was 0.0455, the “area with substrate ENLVFQS” value was 0.0473 and the “area with substrate ENLWFQS” value was 0.0417.

In the case of P14H, the “area with substrate ENLAFQS” value is reported as 0.0948, the “area with substrate ENLCFQS” value is reported as 0.0784 and the “area with substrate ENLDFQS” value is reported as 0.0654. The “area with substrate ENLEFQS” value was 0.0632, the “area with substrate ENLFFQS” value was 0.0832 and the “area with substrate ENLGFQS” value was 0.0602. For the same variant, the “area with substrate ENLHFQS” value was 0.0624, the “area with substrate ENLIFQS” value was 0.0883 and the “area with substrate ENLNFQS” value was 0.055. For the same variant, the “area with substrate ENLPFQS” value was 0.0525, the “area with substrate ENLQFQS” value was 0.0421 and the “area with substrate ENLVFQS” value was 0.0624.

For V229Q, the “area with substrate ENLAFQS” value was 0.0778, the “area with substrate ENLCFQS” value was 0.056 and the “area with substrate ENLDFQS” value was 0.0624. The “area with substrate ENLFFQS” value was 0.072, the “area with substrate ENLGFQS” value was 0.0647 and the “area with substrate ENLHFQS” value was 0.0729. The “area with substrate ENLIFQS” value was 0.0788, the “area with substrate ENLKFQS” value was 0.0873 and the “area with substrate ENLLFQS” value was 0.059. The “area with substrate ENLNFQS” value was 0.0715, the “area with substrate ENLPFQS” value was 0.0822 and the “area with substrate ENLQFQS” value was 0.051. For the same variant, the “area with substrate ENLSFQS” value was 0.0413 and the “area with substrate ENLVFQS” value was 0.0968.

With N45E the “area with substrate ENLAFQS” value was 0.0613, the “area with substrate ENLDFQS” value was 0.0624 and the “area with substrate ENLEFQS” value was 0.0588. For the same variant, the “area with substrate ENLFFQS” value was 0.0627, the “area with substrate ENLGFQS” value was 0.0641 and the “area with substrate ENLHFQS” value was 0.063. The “area with substrate ENLKFQS” value was 0.0612, the “area with substrate ENLLFQS” value was 0.0519 and the “area with substrate ENLMFQS” value was 0.0497. The “area with substrate ENLNFQS” value was 0.0674, the “area with substrate ENLPFQS” value was 0.0446 and the “area with substrate ENLQFQS” value was 0.0811. For the same variant, the “area with substrate ENLSFQS” value was 0.0609, the “area with substrate ENLTFQS” value was 0.0706 and the “area with substrate ENLWFQS” value was 0.0442.

For V67W, the “area with substrate ENLAFQS” value was 0.0462, the “area with substrate ENLCFQS” value was 0.0768 and the “area with substrate ENLDFQS” value was 0.0537. For the same variant, the “area with substrate ENLFFQS” value was 0.074, the “area with substrate ENLGFQS” value was 0.0694 and the “area with substrate ENLIFQS” value was 0.0771. For the same variant, the “area with substrate ENLKFQS” value was 0.0651, the “area with substrate ENLLFQS” value was 0.0681 and the “area with substrate ENLMFQS” value was 0.0668. The “area with substrate ENLNFQS” value was 0.0585, the “area with substrate ENLQFQS” value was 0.0631 and the “area with substrate ENLSFQS” value was 0.0708.

In the case of H76L, the “area with substrate ENLAFQS” value is reported as 0.0666, the “area with substrate ENLDFQS” value is reported as 0.0617 and the “area with substrate ENLEFQS” value is reported as 0.069. The “area with substrate ENLFFQS” value was 0.081, the “area with substrate ENLGFQS” value was 0.061 and the “area with substrate ENLKFQS” value was 0.0741. The “area with substrate ENLNFQS” value was 0.039, the “area with substrate ENLPFQS” value was 0.0585 and the “area with substrate ENLQFQS” value was 0.0833. For the same variant, the “area with substrate ENLSFQS” value was 0.0656, the “area with substrate ENLTFQS” value was 0.0654 and the “area with substrate ENLVFQS” value was 0.0762.

In the case of H76W, the “area with substrate ENLAFQS” value is reported as 0.0619, the “area with substrate ENLCFQS” value is reported as 0.0644 and the “area with substrate ENLDFQS” value is reported as 0.0489. For the same variant, the “area with substrate ENLEFQS” value was 0.0618, the “area with substrate ENLGFQS” value was 0.0756 and the “area with substrate ENLIFQS” value was 0.0997. The “area with substrate ENLLFQS” value was 0.0807, the “area with substrate ENLMFQS” value was 0.0858 and the “area with substrate ENLNFQS” value was 0.067. The “area with substrate ENLPFQS” value was 0.0629 and the “area with substrate ENLRFQS” value was 0.0512.

For M188N, the “area with substrate ENLAFQS” value was 0.0605, the “area with substrate ENLDFQS” value was 0.0685 and the “area with substrate ENLHFQS” value was 0.013. For the same variant, the “area with substrate ENLIFQS” value was 0.0845, the “area with substrate ENLLFQS” value was 0.0643 and the “area with substrate ENLNFQS” value was 0.0703. For the same variant, the “area with substrate ENLPFQS” value was 0.0778, the “area with substrate ENLQFQS” value was 0.0613 and the “area with substrate ENLSFQS” value was 0.0699.

For T23E, the “area with substrate ENLAFQS” value was 0.0657, the “area with substrate ENLCFQS” value was 0.0703 and the “area with substrate ENLDFQS” value was 0.0761. For the same variant, the “area with substrate ENLEFQS” value was 0.0824, the “area with substrate ENLFFQS” value was 0.0814 and the “area with substrate ENLHFQS” value was 0.0702. The “area with substrate ENLKFQS” value was 0.0488, the “area with substrate ENLLFQS” value was 0.0696 and the “area with substrate ENLNFQS” value was 0.0607. For the same variant, the “area with substrate ENLPFQS” value was 0.0628, the “area with substrate ENLQFQS” value was 0.05 and the “area with substrate ENLSFQS” value was 0.0466. For the same variant, the “area with substrate ENLTFQS” value was 0.0706, the “area with substrate ENLVFQS” value was 0.0902 and the “area with substrate ENLWFQS” value was 0.0661.

In the case of R204G, the “area with substrate ENLAFQS” value is reported as 0.0648, the “area with substrate ENLCFQS” value is reported as 0.0567 and the “area with substrate ENLDFQS” value is reported as 0.0686. For the same variant, the “area with substrate ENLEFQS” value was 0.0648, the “area with substrate ENLFFQS” value was 0.0909 and the “area with substrate ENLHFQS” value was 0.0687. The “area with substrate ENLIFQS” value was 0.0889, the “area with substrate ENLLFQS” value was 0.0609 and the “area with substrate ENLMFQS” value was 0.0601. The “area with substrate ENLNFQS” value was 0.068, the “area with substrate ENLPFQS” value was 0.051 and the “area with substrate ENLQFQS” value was 0.06. For the same variant, the “area with substrate ENLRFQS” value was 0.0562, the “area with substrate ENLSFQS” value was 0.0678 and the “area with substrate ENLVFQS” value was 0.0848. The “area with substrate ENLWFQS” value was 0.0841.

With D79M the “area with substrate ENLAFQS” value was 0.065, the “area with substrate ENLDFQS” value was 0.0687 and the “area with substrate ENLFFQS” value was 0.0761. For the same variant, the “area with substrate ENLHFQS” value was 0.0711, the “area with substrate ENLIFQS” value was 0.0557 and the “area with substrate ENLLFQS” value was 0.067. For the same variant, the “area with substrate ENLMFQS” value was 0.0831, the “area with substrate ENLNFQS” value was 0.0617 and the “area with substrate ENLPFQS” value was 0.0457. For the same variant, the “area with substrate ENLQFQS” value was 0.0724, the “area with substrate ENLRFQS” value was 0.0587 and the “area with substrate ENLSFQS” value was 0.0609. The “area with substrate ENLTFQS” value was 0.0605.

In the case of I43H, the “area with substrate ENLAFQS” value is reported as 0.0502, the “area with substrate ENLCFQS” value is reported as 0.0531 and the “area with substrate ENLDFQS” value is reported as 0.0469. The “area with substrate ENLEFQS” value was 0.0589, the “area with substrate ENLFFQS” value was 0.0385 and the “area with substrate ENLGFQS” value was 0.0271. For the same variant, the “area with substrate ENLHFQS” value was 0.0428, the “area with substrate ENLIFQS” value was 0.0357 and the “area with substrate ENLKFQS” value was 0.0582. For the same variant, the “area with substrate ENLLFQS” value was 0.0507, the “area with substrate ENLNFQS” value was 0.0471 and the “area with substrate ENLPFQS” value was 0.055. For the same variant, the “area with substrate ENLSFQS” value was 0.0558 and the “area with substrate ENLVFQS” value was 0.0496.
